This is one part of the list. Shown are side measurements of this screen, not its main read-out; they come without a call.

The inhibition is the change of the read-out against control, counted positive when it falls.

This experiment concerns the target SUMO-conjugating enzyme UBC9 (Homo sapiens) (UniProt P63279). The experiment in a line: inhibitors of in vitro SUMOylation cascade, primary screen, biochemical, HTRF, uHTS (AID 2006). The conditions noted are these: HTRF SUMOylation assay, SAE1/SAE2 + UBC9, in vitro; average of repeat tests; at 35 µM; stronger effect = higher value. (In TR-FRET formats the signal depends on donor and acceptor labels being close together.)
Sequence of UniProt P63279 (P63279 whole entry, looked up): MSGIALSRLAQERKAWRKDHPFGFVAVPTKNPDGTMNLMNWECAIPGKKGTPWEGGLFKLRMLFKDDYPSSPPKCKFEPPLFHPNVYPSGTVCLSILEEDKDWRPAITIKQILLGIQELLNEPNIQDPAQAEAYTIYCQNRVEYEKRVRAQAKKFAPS
Consider `CN1CCN(c2ccc3nccnc3c2)CC1`, for which the inhibition stood at 42.8%.
Consider `CCCNC(=O)c1c(N)n(CC2CCCO2)c2nc3ccccc3nc12` (centres undefined), for which the inhibition stood at 34.5%.
With `O=C1NC(=O)N(Cc2ccco2)C(=O)/C1=C\c1cccn1CCOc1ccc(Cl)cc1`, the inhibition turned out to be 34%.
Next, `CCCCn1c(NS(=O)(=O)c2ccccc2)c(C(=O)OCC)c2nc3ccccc3nc21`: 75.5%; `O=c1[nH]c(O)c(/C=C2/C=CC(c3cc(Cl)ccc3Cl)=N2)c(=O)[nH]1`: 69.3%; `COc1cc(C(c2c(C)[nH]n(-c3ccccc3)c2=O)c2c(C)[nH]n(-c3ccccc3)c2=O)cc(OC)c1OC`: 61.3%.
`Cc1ccccc1-n1c(O)c(/C=N/NC(=O)c2ccccc2O)c(=O)[nH]c1=S`: the inhibition amounted to 39.9%.
As for `CN1CCC2(CC1)C(C#N)=C(N)NC(S)=C2C#N`, the inhibition came to 98.2%.
Next, `O=C(O)c1ccc2c(c1)C1C(Cl)C(Sc3ccccc3[N+](=O)[O-])CC1C(c1cccc([N+](=O)[O-])c1)N2` (centres undefined): 55%; `Cc1cc(/C=C2\C(=O)NC(=O)N(Cc3ccccc3)C2=O)c(C)n1-c1ccc(Cl)c(C(=O)O)c1`: 77.8%; `Cc1ccsc1C(=O)C1CCCN(Cc2ccc(-n3cccn3)cc2)C1` (centres undefined): 63.5%.
For `N#C/C(=C(/O)c1ccc(S(=O)(=O)N(CCCl)CCCl)cc1)c1nc2ccccc2[nH]1`, the inhibition is 44.4%.
On to `O=C1NC(=O)N(Cc2ccco2)C(=O)/C1=C/c1ccc(-c2cccc([N+](=O)[O-])c2)o1`, for which the inhibition was determined as 66.4%.
With `CC(C)OCCCNC(=O)c1c(N)n(CC2CCCO2)c2nc3ccccc3nc12` (centres undefined), the inhibition worked out at 34.8%.
With `CCCCn1c(N)c(C(=O)OCCOC)c2nc3ccccc3nc21`, the inhibition stood at 36%.
With `CCCCn1c(NS(=O)(=O)c2ccc(C)cc2)c(C(=O)OCC)c2nc3ccccc3nc21`, the inhibition is 61.2%.
Next, `O=C(O)c1cccc2c1NC(c1cccc([N+](=O)[O-])c1)C1CC(Sc3ccccc3[N+](=O)[O-])C(Cl)C21` (centres undefined): 87.9%.
In the case of `O=C(N/N=C/c1c(O)n(Cc2ccco2)c(=O)[nH]c1=O)c1ccccc1O`, the inhibition amounted to 50.5%.
Regarding `CCCCNC(=O)c1c(N)n(CCCOC)c2nc3ccccc3nc12`, the inhibition was 35%.
On to `O=C(c1cccn2c(=O)c3ccc(Cl)cc3nc12)N1CCC2(CC1)OCCO2`, for which the inhibition came out at 51.5%.
In the case of `O=c1[nH]c(O)c(/C=C2\C=Nc3ccc(OCc4ccccc4)cc32)c(=O)[nH]1`, the inhibition came to 43.3%.
Next, `O=C(O)CC1OCC=C2CN3CCC45C6=CC(=O)C(=O)C([N+](=O)[O-])=C6NC4C1C2CC35` (centres undefined): 96.9%.
On to `CN1C[C@H](CO)C=C2c3cccc4[nH]cc(c34)C[C@H]21`, for which the inhibition worked out at 41.4%.
As for `O=C1NC(=S)NC(=O)C1=Cc1cccn1-c1ccc(O)cc1`, the inhibition came to 60.1%.

(Values after PubChem BioAssay AID2006 (Sanford-Burnham Center for Chemical Genomics, 2009).)
